Measurements as given in the RNAGym collection of RNA variant scans (doi:10.1093/nar/gkz1192).
Read counts are not given, so values of variants with three or more changes are uncertain.

B1: CPEB3 Ribozyme (parent)
chain: UAACAGGGGGCCACAGCAGAAGCGUUCACGUCGCAGCCCCUGUCAGAUUCUGGUGAAUCUGCGAAUUCUGCUGUAUAUCUC

Variants of: B1
Test: self-cleavage, relative activity (ratio to wild type); higher = more cleavage; in vitro, sequencing
Procedure, shortened: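 CPEB3 self-cleaving ribozyme mutant libraries were made by rounds of error-prone PCR, barcoded, and transcribed in vitro with T7 RNA polymerase for 5 hours at 37°C. Cleavage occurred during transcription and a 15 min DNase I step before EDTA stop. RNAs were reverse transcribed with template switching and Illumina-sequenced, with DNA sequencing mapping barcodes to variants. Relative activity is the variant's cleaved/total read fraction divided by wild type's (minimum 5 reads), averaged across three batches.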

Variant	self-cleavage
UAACAGGGAGCCACAGCAGAAGCGUUCACGACGCAGCCCCCGUCAGAUUCUGGUGAAUCUGCGAAUUCUGCUGUAUAUCUC [G9A U31A U41C]	0.31
UAACAGGGAGCCACAGCAGAAGCGUUCACGUCGCAGCCCCUGUUAGAUUCUGGUGAGUCUGCGAAUUCUGCUGUAUAUCUC [G9A C44U A57G]	0.05
UAACAGGGAGCCACAGCAGAAGCGUUCACGGCGCAGCCCCUGUCAGAUUCUGGUGAAUCUGCGAACUCUGCUGUAUAUCUC [G9A U31G U66C]	0.05
UAACAGGGAGCCACAGCAGAAGCGUUCACGUCACGGCCCCUGUCAGAUUCUGGUGAAUCUGCGAAUUCUGCUGUAUAUCCC [G9A G33A A35G U80C]	0.32
UAACAGGGAGCCACAGCAGAAGCGCUCACGUCGCAGCCCCAGUCUGAUUCUGGUGAAUCUGCGAGUUCUGCUGUAUACCUC [G9A U25C U41A A45U A65G U78C]	0.04
UAACAGGGCGCCACGGCAGAAGCGUUCACGUCGCAGCCCCUGUCAGAUCCUGGUGAAUCUGCUAAUUCUGCUGUAUAUCUC [G9C A15G U49C G63U]	0.42
UAACAGGGAGCCACAGCAGAAGCGUUCACGUCGCAGCCCCUGUCAGAUUCUGGUGAAGCUGCGAAUUCUGCUGUAUCUCUC [G9A U58G A77C]	0.06
UAACAGGGAGCCACAGCAGAAGCGUUCACGUCGCAUCACCUGUCAGAUUCUGGUGAAUCUGCGAAUUCGGCUGUAUAUCUC [G9A G36U C38A U69G]	0.04
UAACAGGGAGCCACAGCAGAAGCGUUCACGUCGCAGCCCCUGUCAGAUUCUGGAGAAUCUGCGAAAUCUGCUGUAUAUCCC [G9A U54A U66A U80C]	0.19
UAACAGGGAGCCACAGCAGAAGCGUUCACGUCGCAGCCCCUGUCAGAUUCUGGUGAAUCUGCGAAUUCUGCCGUACAUCUC [G9A U72C U76C]	0.41
UAACAGGGAGCCACAGCAGAAGCGCUCACGUCGCAGCCCCUGUCAGAUUCUGGUGAAUCUGCGAAUUCUGCUGUAUGUCUC [G9A U25C A77G]	0.42
UAACAGGGAGCCACAGCAGAAGCGUUCACCUCGCAGCCCCUGUCAGAUUCUGGUGAAUCUGCGAGUACUGCUGUAUAUCUC [G9A G30C A65G U67A]	0.07
UAACAGGGCGCCACAGCAGAGGCGUUCACGUCGCAGCCCCUGUCAGAUUCUGGUGAAUCUGCGGACUCUGCUGUAUAUCUC [G9C A21G A64G U66C]	0.22
UAACAGGGCGCCACAGCAGAAGCGUUCUCGUCGCAGCACCUGUCAGAUUCUGAUGAAGCUGCGAAUUCUGCUGUAUAUCUC [G9C A28U C38A G53A U58G]	0.05
UAACAGGGAGCCACAGCAGAAGCGGUCACGUCGCAGCCCCUGUCAGAUUCAGGUGAAUCUGUGAAUCCUGCUGCUUAUCUC [G9A U25G U51A C62U U67C U74C A75U]	0.03
UAACAGGGCGCCACAGCAGAAGCGUUCAUGUCGCAGCCCCUGUCAGGUUCUGGUGAAUCUGCGAAUUCUGCUGUAUAUCUC [G9C C29U A47G]	0.19
UAACAGGGAGCCACAGCAGAAGCGCUCACGUCGCAGCCCCUGUCAGAUUCUGGUGAGUCUGCGGAUUCUGCUGUAUAUCUC [G9A U25C A57G A64G]	0.1

Variant	self-cleavage
UAACAGGGCGCCACAGCAGAAGCGCUCACGUCGCAGCCCCUGUCAGGUUCUGGUGAAUCUGCGAAUUCUGCUGUAUAUCUC [G9C U25C A47G]	0.19
UAACAGGGAGCCACAGCAGAAGCGAUCACGUCGCAGCCCCUGUCGGAUUCUGGUGAAUCUGUGAAUUCUGCCGUAAAUCUC [G9A U25A A45G C62U U72C U76A]	0.04
UAACAGGGCGCCACAGCAGAAGCGUUCACGUCGCAGCCCCUGUCAGAUUCUGGUGGAUCUGCGGAUUCUGCUGUAUAUCUC [G9C A56G A64G]	0.14
UAACAGGGAGCCACAGCAGAAGCGUUCACGUCGCAGCCCCUGCCAGAUUCUGGUGAGUCUGCGAAUUCUGCUGUAUGUCUC [G9A U43C A57G A77G]	0.14
UAACAGGGAGCCACAGCAGAAGCGUUCACGUCACAACCCCCGUCAGAUUCUGGUGAAUCUGCGAAUUCUGCUGUAUAUCUC [G9A G33A G36A U41C]	0.08
UAACAGGGAGCCACAGCAGAAGCGUUCACGUCGCAGCUCCUGACAGAUUCUGGUGAAUCUGCGAAUUCUGCCGUAUGUCUC [G9A C38U U43A U72C A77G]	1.17
UAACAGGGAGCCACAGCAGAAGCAGUCACGUCGCGGCCCCUGUCAGAUUCUGGUGAAUCUGCGAAUUCUGCUGUAUAUCUC [G9A G24A U25G A35G]	0.07
UAACAGGGAGCCACAGCAGAAGCGUUCACGACGCAGCCCCUGUCAGAUUCUAGUGAGUCUGCGAAUUCUGCUGUAUAUCUC [G9A U31A G52A A57G]	0.05
UAACAGGGAGCCACAGCAGAAGCGUUCACGUCGCAGCCCCAGUCAGAUUCUGGCGAAUCUGCGAAUCCUGCUGUAUAUCAC [G9A U41A U54C U67C U80A]	0.05
UAACAGGGAGCCACAGCAGAAGCGAUCACGUCGCAGCCCCUGUCAGAUUCUGGUGAACCUGCGAAUUCUGCUGUAUAUCUC [G9A U25A U58C]	0.05
UAACAGGGAGCCACAGCAGAAGCGUCCACGUCGCAGCCCCUGUCAGUUUCUGGUGGCUCUGCGAAUUCUGCUGUAUAUCUC [G9A U26C A47U A56G A57C]	0
UAACAGGGACCCACAGCAGAAGCGUACACGACGCAGCCCCUGUCAGAUCCUGGUGAAUCUACGAAUACUGCUGUAUAUCUC [G9A G10C U26A U31A U49C G61A U67A]	0.04
UAACAGGGAGCCACAGCAGAAGCGCUCAGGUCGCAGCCCCUGUCUGAUUCUGGUGAAUCUGCGAAUUCUGCUGAAUGUCUC [G9A U25C C29G A45U U74A A77G]	0.04
UAACAGGGCGUAACAGCAGAAGCGUCCACCUCGCAGCCCCUGUCAGAUUCUGGUGAAUCCGCGAAUUCCGCUGUAUAUCUC [G9C C11U C12A U26C G30C U60C U69C]	0.04
UAACAGGGAGCCACAGCAGAAGCGUUCACGUCGCAGCCCCUGUCAGAUUCUGAUGAAUCUACGAGUUCUGCCGUAUAUCUC [G9A G53A G61A A65G U72C]	0.17
UAACAGGGAGCCACAGCAGAAGCGAUCACGUCGCGGCCCCUGUCAGAUUCUGGUGAAUCUGCGAAUUCUGCCGUAUAUCUC [G9A U25A A35G U72C]	0.94
UAACAGGGAGCCACAGCAGAAGCGAUCACAUCGCAGCCCCUGUCAGAUUCUGGUGAAUCUGCGAAUUCUGCUGUAAACCUC [G9A U25A G30A U76A U78C]	0.06
